This passage reports binding results from publication PMC7053169.

Chains of the proteins cited; added tags and fusions are not shown. Residues count along the entry.
UniProt P26660, residues 814-1030: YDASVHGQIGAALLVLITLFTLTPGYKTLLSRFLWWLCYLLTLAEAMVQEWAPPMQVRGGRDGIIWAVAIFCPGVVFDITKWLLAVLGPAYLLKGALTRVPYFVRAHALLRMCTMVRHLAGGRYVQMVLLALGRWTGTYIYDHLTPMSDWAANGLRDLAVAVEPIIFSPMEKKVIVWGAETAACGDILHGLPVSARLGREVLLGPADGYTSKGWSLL
UniProt Q96DX4, residues 17-576: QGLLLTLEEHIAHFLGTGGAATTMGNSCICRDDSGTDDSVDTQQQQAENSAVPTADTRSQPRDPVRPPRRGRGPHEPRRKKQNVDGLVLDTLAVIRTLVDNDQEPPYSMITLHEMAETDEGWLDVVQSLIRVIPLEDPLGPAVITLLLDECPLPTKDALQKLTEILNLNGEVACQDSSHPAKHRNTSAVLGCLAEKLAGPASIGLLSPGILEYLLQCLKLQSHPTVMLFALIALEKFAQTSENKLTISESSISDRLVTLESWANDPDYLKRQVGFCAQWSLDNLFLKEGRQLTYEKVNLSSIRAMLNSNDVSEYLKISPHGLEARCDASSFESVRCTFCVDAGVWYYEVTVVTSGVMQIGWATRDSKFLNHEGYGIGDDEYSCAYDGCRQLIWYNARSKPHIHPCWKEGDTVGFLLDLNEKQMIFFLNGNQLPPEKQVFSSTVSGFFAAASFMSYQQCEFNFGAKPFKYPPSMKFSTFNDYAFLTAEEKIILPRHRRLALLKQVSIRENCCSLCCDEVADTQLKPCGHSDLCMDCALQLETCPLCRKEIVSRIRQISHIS
UniProt Q8N4F7: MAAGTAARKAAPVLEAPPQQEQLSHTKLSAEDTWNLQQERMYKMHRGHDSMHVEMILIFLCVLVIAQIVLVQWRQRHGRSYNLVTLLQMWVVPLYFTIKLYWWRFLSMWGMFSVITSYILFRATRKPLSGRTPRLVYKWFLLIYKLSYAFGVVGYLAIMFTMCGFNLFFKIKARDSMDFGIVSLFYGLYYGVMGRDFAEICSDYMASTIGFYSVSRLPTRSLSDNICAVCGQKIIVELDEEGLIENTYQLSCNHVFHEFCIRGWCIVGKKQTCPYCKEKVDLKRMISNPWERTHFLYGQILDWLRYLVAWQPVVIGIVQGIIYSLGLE
UniProt Q9BY78: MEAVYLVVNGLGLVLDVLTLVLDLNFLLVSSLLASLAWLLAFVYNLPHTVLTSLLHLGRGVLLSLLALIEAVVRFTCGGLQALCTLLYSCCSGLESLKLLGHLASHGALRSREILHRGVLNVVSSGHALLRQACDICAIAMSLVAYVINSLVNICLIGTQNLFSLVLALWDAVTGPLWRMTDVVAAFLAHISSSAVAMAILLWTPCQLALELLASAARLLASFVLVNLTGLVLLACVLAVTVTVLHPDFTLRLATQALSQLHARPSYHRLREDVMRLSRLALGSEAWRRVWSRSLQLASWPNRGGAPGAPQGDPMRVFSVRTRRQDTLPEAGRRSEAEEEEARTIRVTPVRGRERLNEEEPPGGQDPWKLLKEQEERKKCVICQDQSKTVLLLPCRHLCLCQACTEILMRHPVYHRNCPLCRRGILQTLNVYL
UniProt Q86TM6: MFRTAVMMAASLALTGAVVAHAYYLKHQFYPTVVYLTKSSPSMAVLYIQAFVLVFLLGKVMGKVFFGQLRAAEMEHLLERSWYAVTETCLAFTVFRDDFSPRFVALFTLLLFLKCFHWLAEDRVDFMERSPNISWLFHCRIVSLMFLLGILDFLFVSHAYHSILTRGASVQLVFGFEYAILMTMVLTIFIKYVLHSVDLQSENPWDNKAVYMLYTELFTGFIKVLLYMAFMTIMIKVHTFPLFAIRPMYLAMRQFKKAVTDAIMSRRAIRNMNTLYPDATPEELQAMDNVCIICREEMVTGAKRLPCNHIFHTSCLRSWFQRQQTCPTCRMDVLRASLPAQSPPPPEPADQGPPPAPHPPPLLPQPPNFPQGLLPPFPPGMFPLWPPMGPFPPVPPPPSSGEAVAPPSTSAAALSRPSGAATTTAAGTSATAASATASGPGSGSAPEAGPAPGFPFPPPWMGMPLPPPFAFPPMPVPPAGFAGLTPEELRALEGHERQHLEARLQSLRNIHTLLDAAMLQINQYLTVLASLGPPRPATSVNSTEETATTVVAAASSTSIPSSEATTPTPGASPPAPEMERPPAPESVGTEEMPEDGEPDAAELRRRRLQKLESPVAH
UniProt O14964: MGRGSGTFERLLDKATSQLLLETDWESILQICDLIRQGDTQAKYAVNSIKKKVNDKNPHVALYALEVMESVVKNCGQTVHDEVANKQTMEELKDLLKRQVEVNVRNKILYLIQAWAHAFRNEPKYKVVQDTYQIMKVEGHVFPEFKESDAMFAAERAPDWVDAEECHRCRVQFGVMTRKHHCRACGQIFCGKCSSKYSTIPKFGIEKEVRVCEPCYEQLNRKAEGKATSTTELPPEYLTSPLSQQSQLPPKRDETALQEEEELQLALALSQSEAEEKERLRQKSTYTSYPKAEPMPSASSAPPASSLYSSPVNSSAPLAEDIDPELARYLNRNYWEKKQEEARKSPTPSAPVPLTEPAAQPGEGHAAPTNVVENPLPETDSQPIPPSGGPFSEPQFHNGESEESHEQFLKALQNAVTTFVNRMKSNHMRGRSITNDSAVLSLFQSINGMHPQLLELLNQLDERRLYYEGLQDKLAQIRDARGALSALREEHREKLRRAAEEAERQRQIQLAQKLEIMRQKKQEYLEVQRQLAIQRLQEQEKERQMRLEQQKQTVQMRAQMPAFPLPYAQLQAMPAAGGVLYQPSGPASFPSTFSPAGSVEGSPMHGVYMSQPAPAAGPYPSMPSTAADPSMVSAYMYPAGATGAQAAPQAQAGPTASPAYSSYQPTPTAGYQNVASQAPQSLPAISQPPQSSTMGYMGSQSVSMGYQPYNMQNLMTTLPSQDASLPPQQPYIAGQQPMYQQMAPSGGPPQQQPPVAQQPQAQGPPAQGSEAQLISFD

One assay addresses T1, FLAG-MARCH8 (human) (UniProt Q5T0T0).
T1 sequence: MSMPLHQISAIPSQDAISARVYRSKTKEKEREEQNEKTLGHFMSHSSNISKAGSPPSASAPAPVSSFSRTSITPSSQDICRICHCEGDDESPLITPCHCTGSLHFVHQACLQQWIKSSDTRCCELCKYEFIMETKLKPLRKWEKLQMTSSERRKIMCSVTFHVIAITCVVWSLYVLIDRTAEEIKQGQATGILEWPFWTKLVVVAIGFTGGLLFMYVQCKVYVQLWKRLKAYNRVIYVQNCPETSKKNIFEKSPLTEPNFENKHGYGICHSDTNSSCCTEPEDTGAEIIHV
The assay is described as follows: co-IP; IP with anti-FLAG antibody or IgG control from membrane fractions of 293T cells ectopically expressing FLAG-MARCH8 and/or GLuc-NS2; blots for GLuc and FLAG.

Assay [1] concerns the target GLuc2-NS2 (HCV NS2 protein derived from the J6/JFH genome, fused to a Gaussia luciferase fragment) (hepatitis C virus (J6/JFH)) (UniProt P26660). The assay is described as follows: split reporter; HT-GPCA (Gaussia princeps split-luciferase complementation): GLuc1-UPS (prey) and GLuc2-NS2 (bait) transfected pairwise into 293T cells, luciferase at 24 hr; primary screen (RLU, boxplot) and secondary screen (NLR, Z score).

The target is the same in assay [2]. The assay is described as follows: split reporter; PCA of NS2 with HRS in MARCH8KO and WT cells, pooled from two experiments.
The target of assay [3] is HCV NS2 (native, from J6/JFH HCV RNA) (hepatitis C virus (J6/JFH)) (UniProt P26660). In words: co-IP; IP with anti-NS2 antibody or IgG control from membrane fractions of Huh7.5.1 cells 72 hr after transfection with HCV RNA; cells treated with 1 mM DSP crosslinker before lysis; blots for MARCH8, MARCH10, NS2.

These are yes or no findings as the source states them, for the method shown. Binding seen in cells or lysates may run through a third protein. Some entries that bind do so weakly or less than the wild type. For some assays here: Sequences can lack the tags named with a protein.

With “GLuc2-NS2 (HCV NS2 protein derived from the J6/JFH genome, fused to a Gaussia luciferase fragment) (from UniProt P26660 814-1030)”, the binding entry with FLAG-MARCH8 (human) is reported as “binds”.

Take “GLuc1-RSPRY1 (from UniProt Q96DX4 17-576) (enzyme)”: the binding result in assay [1] is reported as “binds”.

In the case of “GLuc1-RNA175 (from UniProt Q8N4F7 1-328) (enzyme)”, the binding entry in assay [1] was “binds”.

Consider “GLuc1-RNF26 (from UniProt Q9BY78 1-433) (enzyme)”, for which the binding entry in assay [1] is recorded as “binds”.

“GLuc1-SYV1 (from UniProt Q86TM6 1-617) (enzyme)”: the binding result in assay [1] is on record as “binds”.

On to “HRS (hepatocyte growth factor-regulated tyrosine kinase substrate) (from UniProt O14964 1-777)”, for which, in assay [2], the binding result is recorded as “binds”.

B1: MARCH10 (endogenous) (enzyme, UniProt Q8NA82 1-808)
chain: MLHDARDRQKFFSDVQYLRDMQHKVDSEYQACLRRQEYRRDPNEKKRDQFWGQETSFERSRFSSRSSSKQSSSEEDALTEPRSSIKISAFKCDSKLPAIDQTSVKQKHKSTMTVRKAEKVDPSEPSPADQAPMVLLRKRKPNLRRFTVSPESHSPRASGDRSRQKQQWPAKVPVPRGADQVVQQEGLMCNTKLKRPNQERRNLVPSSQPMTENAPDRAKKGDPSAPSQSELHPALSQAFQGKNSPQVLSEFSGPPLTPTTVGGPRKASFRFRDEDFYSILSLNSRRESDDTEEETQSEECLWVGVRSPCSPSHHKRSRFGGTSTPQAKNKNFEENAENCRGHSSRRSEPSHGSLRISNAMEPATERPSAGQRLSQDPGLPDRESATEKDRGGSENAKKSPLSWDTKSEPRQEVGVNAENVWSDCISVEHRPGTHDSEGYWKDYLNSSQNSLDYFISGRPISPRSSVNSSYNPPASFMHSALRDDIPVDLSMSSTSVHSSDSEGNSGFHVCQPLSPIRNRTPFASAENHNYFPVNSAHEFAVREAEDTTLTSQPQGAPLYTDLLLNPQGNLSLVDSSSSSPSRMNSEGHLHVSGSLQENTPFTFFAVSHFPNQNDNGSRMAASGFTDEKETSKIKADPEKLKKLQESLLEEDSEEEGDLCRICQIAGGSPSNPLLEPCGCVGSLQFVHQECLKKWLKVKITSGADLGAVKTCEMCKQGLLVDLGDFNMIEFYQKHQQSQAQNELMNSGLYLVLLLHLYEQRFAELMRLNHNQVERERLSRNYPQPRTEENENSELGDGNEGSISQSQVV
Take B1: in assay [3], the binding entry is given as “no binding”.

B2: MARCH8 (endogenous) (enzyme, UniProt Q5T0T0 1-291)
chain: MSMPLHQISAIPSQDAISARVYRSKTKEKEREEQNEKTLGHFMSHSSNISKAGSPPSASAPAPVSSFSRTSITPSSQDICRICHCEGDDESPLITPCHCTGSLHFVHQACLQQWIKSSDTRCCELCKYEFIMETKLKPLRKWEKLQMTSSERRKIMCSVTFHVIAITCVVWSLYVLIDRTAEEIKQGQATGILEWPFWTKLVVVAIGFTGGLLFMYVQCKVYVQLWKRLKAYNRVIYVQNCPETSKKNIFEKSPLTEPNFENKHGYGICHSDTNSSCCTEPEDTGAEIIHV
For the molecule B2, the binding entry in assay [3] is “binds”.
